{
  "source": "the supplement of paper PMC8728848",
  "binders": {"B1": {"name": "PX9961U-pdi-543-24-543 (Parabacteroides distasonis) (protein)", "chain": "EEPVGEFLPGQVESEENIEGIVTGAYAVLDGYYASDAINSGCSNWQFGDVVSDDAYKGGGGTGDQNQIHLMEIFNANPTGIDFEARWAALYEGIKRCNQAIRLLNGSEVKNKEQRLAEMRFLRGHYYFNLKIIYNQIPWIDETLVDPNEYNKKSNIEFSSDQLWEKILEEFSAAYKVLPESQADYGRPTKMAARAYMAKVYLYQSKWKECLEACDEVIQSGKYELFPDFRNVFLPENDNCSEIIFAIQLSINDGSPNNENGSYGDRLLPPGGPYPVYGFLRPTQNLVNAYKTDVKGLPYNDGKDVSENDYVDVRLDHTLARPNIPFMDVQLYDWTPREASVYGPYSPKKRLVSLNSTYYSPIWPYVNALNFYVIRYADLLLWRAEAAIETGDLETGRKYINMIRERAKNTQHVKTMDQSQDAANYKVGVYDEPFKSKNEAVQALRMERRLEMAHEGIRFFDLVRWGVADEVINAYIAKEKVFRSHLQNAHFVKGKHEYFPIPQSMIDICGTEVMKQNPGY"}},
  "experiment_in_all_cases": "glycan array binding signal (z-score within array); higher = stronger binding",
  "settings_in_all_cases": "glycan notation: IUPAC condensed, linker removed",
  "key": {"[1]": {"molecular_target": "Gal(b1-3)GlcNAc(b1-6)[Gal(b1-3)]GalNAc", "summary_of_the_method": "(§1)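 Glycan array data were curated from 3228 arrays in the Consortium for Functional Glycomics database and kept only where the protein sequence was available. Glycan names were converted to IUPAC-condensed notation, and columns mapping to the same glycan were averaged. The binding signal is a within-array Z-score, averaged across arrays of the same protein sequence at different concentrations or buffers and across linkers. Negative Z-scores can be read as non-binding.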"}, "Gal(b1-3)GlcNAc6S": {"molecular_target": "Gal(b1-3)GlcNAc6S", "summary_of_the_method": "as §1"}, "[2]": {"molecular_target": "Gal(b1-3)[Fuc(a1-4)]GlcNAc", "summary_of_the_method": "as §1"}, "[3]": {"molecular_target": "Gal(b1-3)[Fuc(a1-4)]GlcNAc(b1-2)Man", "summary_of_the_method": "as §1"}, "[4]": {"molecular_target": "Gal(b1-3)[Fuc(a1-4)]GlcNAc(b1-2)Man(a1-3)[Gal(b1-3)[Fuc(a1-4)]GlcNAc(b1-2)Man(a1-6)]Man(b1-4)GlcNAc(b1-4)[Fuc(a1-6)]GlcNAc", "summary_of_the_method": "as §1"}, "[5]": {"molecular_target": "Gal(b1-3)[Fuc(a1-4)]GlcNAc(b1-3)Gal(b1-3)[Fuc(a1-4)]GlcNAc", "summary_of_the_method": "as §1"}, "[6]": {"molecular_target": "Gal(b1-3)[Fuc(a1-4)]GlcNAc(b1-3)Gal(b1-4)[Fuc(a1-3)]GlcNAc", "summary_of_the_method": "as §1"}, "[7]": {"molecular_target": "Gal(b1-3)[Fuc(a1-4)]GlcNAc(b1-6)GalNAc", "summary_of_the_method": "as §1"}, "[8]": {"molecular_target": "Gal(b1-3)[GlcNAc(b1-6)]GalNAc", "summary_of_the_method": "as §1"}, "[9]": {"molecular_target": "Gal(b1-3)[Neu5Ac(a2-6)]GalNAc", "summary_of_the_method": "as §1"}, "[10]": {"molecular_target": "Gal(b1-3)[Neu5Ac(a2-6)]GlcNAc(b1-4)Gal(b1-4)Glc", "summary_of_the_method": "as §1"}, "[11]": {"molecular_target": "Gal(b1-3)[Neu5Ac(b2-6)]GalNAc", "summary_of_the_method": "as §1"}, "Gal(b1-4)Gal": {"molecular_target": "Gal(b1-4)Gal", "summary_of_the_method": "as §1"}, "[12]": {"molecular_target": "Gal(b1-4)GalNAc(a1-3)[Fuc(a1-2)]Gal(b1-4)GlcNAc", "summary_of_the_method": "as §1"}, "[13]": {"molecular_target": "Gal(b1-4)GalNAc(b1-3)[Fuc(a1-2)]Gal(b1-4)GlcNAc", "summary_of_the_method": "as §1"}, "Gal(b1-4)Glc": {"molecular_target": "Gal(b1-4)Glc", "summary_of_the_method": "as §1"}, "Gal(b1-4)Glc6S": {"molecular_target": "Gal(b1-4)Glc6S", "summary_of_the_method": "as §1"}, "Gal(b1-4)GlcNAc": {"molecular_target": "Gal(b1-4)GlcNAc", "summary_of_the_method": "as §1"}, "[14]": {"molecular_target": "Gal(b1-4)GlcNAc(a1-6)Gal(b1-4)GlcNAc", "summary_of_the_method": "as §1"}, "Gal(b1-4)GlcNAc(b1-2)Man": {"molecular_target": "Gal(b1-4)GlcNAc(b1-2)Man", "summary_of_the_method": "as §1"}, "[15]": {"molecular_target": "Gal(b1-4)GlcNAc(b1-2)Man(a1-3)Man(b1-4)GlcNAc(b1-4)GlcNAc", "summary_of_the_method": "as §1"}, "[16]": {"molecular_target": "Gal(b1-4)GlcNAc(b1-2)Man(a1-3)[Gal(b1-4)GlcNAc(b1-2)Man(a1-6)]Man(b1-4)GlcNAc(b1-4)GlcNAc", "summary_of_the_method": "as §1"}, "[17]": {"molecular_target": "Gal(b1-4)GlcNAc(b1-2)Man(a1-3)[Gal(b1-4)GlcNAc(b1-2)Man(a1-6)]Man(b1-4)GlcNAc(b1-4)[Fuc(a1-6)]GlcNAc", "summary_of_the_method": "as §1"}, "[18]": {"molecular_target": "Gal(b1-4)GlcNAc(b1-2)Man(a1-3)[Gal(b1-4)GlcNAc(b1-2)Man(a1-6)][Gal(b1-4)GlcNAc(b1-4)]Man(b1-4)GlcNAc(b1-4)[Fuc(a1-6)]GlcNAc", "summary_of_the_method": "as §1"}, "[19]": {"molecular_target": "Gal(b1-4)GlcNAc(b1-2)Man(a1-3)[Gal(b1-4)GlcNAc(b1-2)Man(a1-6)][GlcNAc(b1-4)]Man(b1-4)GlcNAc(b1-4)[Fuc(a1-6)]GlcNAc", "summary_of_the_method": "as §1"}, "[20]": {"molecular_target": "Gal(b1-4)GlcNAc(b1-2)Man(a1-3)[GlcNAc(b1-2)Man(a1-6)]Man(b1-4)GlcNAc(b1-4)GlcNAc", "summary_of_the_method": "as §1"}, "[21]": {"molecular_target": "Gal(b1-4)GlcNAc(b1-2)Man(a1-3)[GlcNAc(b1-4)][Gal(b1-4)GlcNAc(b1-2)Man(a1-6)]Man(b1-4)GlcNAc(b1-4)GlcNAc", "summary_of_the_method": "as §1"}, "[22]": {"molecular_target": "Gal(b1-4)GlcNAc(b1-2)Man(a1-3)[Man(a1-6)]Man(b1-4)GlcNAc(b1-4)GlcNAc", "summary_of_the_method": "as §1"}, "[23]": {"molecular_target": "Gal(b1-4)GlcNAc(b1-2)Man(a1-6)Man(b1-4)GlcNAc(b1-4)GlcNAc", "summary_of_the_method": "as §1"}, "[24]": {"molecular_target": "Gal(b1-4)GlcNAc(b1-2)Man(a1-6)[GlcNAc(b1-2)Man(a1-3)]Man(b1-4)GlcNAc(b1-4)GlcNAc", "summary_of_the_method": "as §1"}, "[25]": {"molecular_target": "Gal(b1-4)GlcNAc(b1-2)Man(a1-6)[Man(a1-3)]Man(b1-4)GlcNAc(b1-4)GlcNAc", "summary_of_the_method": "as §1"}, "[26]": {"molecular_target": "Gal(b1-4)GlcNAc(b1-2)[Gal(b1-4)GlcNAc(b1-4)]Man(a1-3)[Gal(b1-4)GlcNAc(b1-2)Man(a1-6)]Man(b1-4)GlcNAc(b1-4)GlcNAc", "summary_of_the_method": "as §1"}, "[27]": {"molecular_target": "Gal(b1-4)GlcNAc(b1-2)[Gal(b1-4)GlcNAc(b1-4)]Man(a1-3)[Gal(b1-4)GlcNAc(b1-2)[Gal(b1-4)GlcNAc(b1-6)]Man(a1-6)]Man(b1-4)GlcNAc(b1-4)GlcNAc", "summary_of_the_method": "as §1"}, "[28]": {"molecular_target": "Gal(b1-4)GlcNAc(b1-2)[Gal(b1-4)GlcNAc(b1-4)]Man(a1-3)[GlcNAc(b1-4)][Gal(b1-4)GlcNAc(b1-2)Man(a1-6)]Man(b1-4)GlcNAc(b1-4)GlcNAc", "summary_of_the_method": "as §1"}, "[29]": {"molecular_target": "Gal(b1-4)GlcNAc(b1-2)[Gal(b1-4)GlcNAc(b1-4)]Man(a1-3)[GlcNAc(b1-4)][Gal(b1-4)GlcNAc(b1-2)[Gal(b1-4)GlcNAc(b1-6)]Man(a1-6)]Man(b1-4)GlcNAc(b1-4)GlcNAc", "summary_of_the_method": "as §1"}, "[30]": {"molecular_target": "Gal(b1-4)GlcNAc(b1-2)[Gal(b1-4)GlcNAc(b1-6)]Man(a1-6)[Gal(b1-4)GlcNAc(b1-2)Man(a1-3)]Man(b1-4)GlcNAc(b1-4)GlcNAc", "summary_of_the_method": "as §1"}, "[31]": {"molecular_target": "Gal(b1-4)GlcNAc(b1-2)[Gal(b1-4)GlcNAc(b1-6)]Man(a1-6)[Gal(b1-4)GlcNAc(b1-2)Man(a1-3)]Man(b1-4)GlcNAc(b1-4)[Fuc(a1-6)]GlcNAc", "summary_of_the_method": "as §1"}},
  "note": "This is one part of the list.",
  "data": [
    {"binder": "B1", "values": [
      {"measurement": "glycan array binding signal (z-score)", "setting": "[1]", "value": 0.565},
      {"measurement": "glycan array binding signal (z-score)", "setting": "Gal(b1-3)GlcNAc6S", "value": -0.261},
      {"measurement": "glycan array binding signal (z-score)", "setting": "[2]", "value": -0.344},
      {"measurement": "glycan array binding signal (z-score)", "setting": "[3]", "value": -0.354},
      {"measurement": "glycan array binding signal (z-score)", "setting": "[4]", "value": 0.134},
      {"measurement": "glycan array binding signal (z-score)", "setting": "[5]", "value": -0.393},
      {"measurement": "glycan array binding signal (z-score)", "setting": "[6]", "value": -0.465},
      {"measurement": "glycan array binding signal (z-score)", "setting": "[7]", "value": 3.44},
      {"measurement": "glycan array binding signal (z-score)", "setting": "[8]", "value": -0.355},
      {"measurement": "glycan array binding signal (z-score)", "setting": "[9]", "value": -0.38},
      {"measurement": "glycan array binding signal (z-score)", "setting": "[10]", "value": -0.483},
      {"measurement": "glycan array binding signal (z-score)", "setting": "[11]", "value": -0.456},
      {"measurement": "glycan array binding signal (z-score)", "setting": "Gal(b1-4)Gal", "value": 1.69},
      {"measurement": "glycan array binding signal (z-score)", "setting": "[12]", "value": -0.413},
      {"measurement": "glycan array binding signal (z-score)", "setting": "[13]", "value": -0.247},
      {"measurement": "glycan array binding signal (z-score)", "setting": "Gal(b1-4)Glc", "value": -0.492},
      {"measurement": "glycan array binding signal (z-score)", "setting": "Gal(b1-4)Glc6S", "value": -0.266},
      {"measurement": "glycan array binding signal (z-score)", "setting": "Gal(b1-4)GlcNAc", "value": -0.332},
      {"measurement": "glycan array binding signal (z-score)", "setting": "[14]", "value": -0.139},
      {"measurement": "glycan array binding signal (z-score)", "setting": "Gal(b1-4)GlcNAc(b1-2)Man", "value": -0.43},
      {"measurement": "glycan array binding signal (z-score)", "setting": "[15]", "value": -0.134},
      {"measurement": "glycan array binding signal (z-score)", "setting": "[16]", "value": -0.463},
      {"measurement": "glycan array binding signal (z-score)", "setting": "[17]", "value": -0.189},
      {"measurement": "glycan array binding signal (z-score)", "setting": "[18]", "value": -0.449},
      {"measurement": "glycan array binding signal (z-score)", "setting": "[19]", "value": -0.445},
      {"measurement": "glycan array binding signal (z-score)", "setting": "[20]", "value": -0.329},
      {"measurement": "glycan array binding signal (z-score)", "setting": "[21]", "value": -0.173},
      {"measurement": "glycan array binding signal (z-score)", "setting": "[22]", "value": 1},
      {"measurement": "glycan array binding signal (z-score)", "setting": "[23]", "value": 0.168},
      {"measurement": "glycan array binding signal (z-score)", "setting": "[24]", "value": -0.394},
      {"measurement": "glycan array binding signal (z-score)", "setting": "[25]", "value": 2.55},
      {"measurement": "glycan array binding signal (z-score)", "setting": "[26]", "value": -0.378},
      {"measurement": "glycan array binding signal (z-score)", "setting": "[27]", "value": -0.303},
      {"measurement": "glycan array binding signal (z-score)", "setting": "[28]", "value": 0.135},
      {"measurement": "glycan array binding signal (z-score)", "setting": "[29]", "value": 3.19},
      {"measurement": "glycan array binding signal (z-score)", "setting": "[30]", "value": 1.91},
      {"measurement": "glycan array binding signal (z-score)", "setting": "[31]", "value": -0.26}
    ]}
  ]
}
